Test results published in PMC4336329 (PLoS ONE, 2015).
Out of some 310,000 compounds screened, about 14,000 (4.5%) showed an effect of 50% or more. The effect is printed as a negative number. The list shows a part of the results.

target: human ether-à-go-go-related gene (hERG) potassium channel (human, UniProt Q12809); test: primary screen, population patch clamp on CHO cells stably expressing hERG
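Further: peak tail current of the secondary pulse compared with the same well before compound.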

human ether-à-go-go-related gene (hERG) potassium channel, sequence (Q12809 whole entry, looked up): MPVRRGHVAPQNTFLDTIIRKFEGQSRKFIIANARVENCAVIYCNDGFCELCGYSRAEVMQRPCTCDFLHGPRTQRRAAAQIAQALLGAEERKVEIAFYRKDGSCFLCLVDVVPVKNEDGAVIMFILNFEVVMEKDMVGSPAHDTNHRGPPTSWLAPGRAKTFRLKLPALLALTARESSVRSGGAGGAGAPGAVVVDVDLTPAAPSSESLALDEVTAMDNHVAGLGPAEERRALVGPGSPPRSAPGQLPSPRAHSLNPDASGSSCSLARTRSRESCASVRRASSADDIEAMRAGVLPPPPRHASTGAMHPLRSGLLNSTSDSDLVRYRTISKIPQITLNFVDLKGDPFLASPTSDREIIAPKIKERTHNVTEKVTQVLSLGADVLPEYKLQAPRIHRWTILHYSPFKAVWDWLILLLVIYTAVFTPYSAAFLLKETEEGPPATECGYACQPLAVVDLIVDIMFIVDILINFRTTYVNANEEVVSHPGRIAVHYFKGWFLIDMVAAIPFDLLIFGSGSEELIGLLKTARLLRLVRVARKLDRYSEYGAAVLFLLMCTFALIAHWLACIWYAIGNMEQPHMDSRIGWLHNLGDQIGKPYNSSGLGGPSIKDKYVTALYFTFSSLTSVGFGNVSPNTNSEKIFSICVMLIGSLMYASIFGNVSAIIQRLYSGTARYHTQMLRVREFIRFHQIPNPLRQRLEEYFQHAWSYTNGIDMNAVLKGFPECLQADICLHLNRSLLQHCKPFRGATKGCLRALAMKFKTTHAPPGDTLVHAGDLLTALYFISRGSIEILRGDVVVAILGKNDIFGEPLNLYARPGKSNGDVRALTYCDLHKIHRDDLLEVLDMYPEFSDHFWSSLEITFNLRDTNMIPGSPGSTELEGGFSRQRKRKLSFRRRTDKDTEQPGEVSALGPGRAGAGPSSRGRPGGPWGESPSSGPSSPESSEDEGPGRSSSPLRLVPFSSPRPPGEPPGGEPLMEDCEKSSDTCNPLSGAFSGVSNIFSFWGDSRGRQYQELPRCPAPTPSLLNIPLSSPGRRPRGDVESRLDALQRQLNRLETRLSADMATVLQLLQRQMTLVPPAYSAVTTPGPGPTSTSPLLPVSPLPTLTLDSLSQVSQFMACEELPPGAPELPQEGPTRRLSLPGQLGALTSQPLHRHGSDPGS

Structure (SMILES)	hERG current change (%, negative = inhibition) at 10uM
COc1ccccc1-n1ccnc(SCC(=O)NCc2ccccc2)c1=O	14.4%
O=S(=O)(c1ccc(F)c(F)c1)N1CCCc2ccccc21	9.31%
Cc1nn(-c2ccccc2)c(N)c1C(O)(C(F)(F)F)C(F)(F)F	9.92%
COC(=O)c1ccc(/C=N/NC(=O)CCSc2nc3ccccc3s2)cc1	11.2%
Cc1ccc(C(C)C)c(OCC(=O)NN2C(=O)c3ccccc3C2=O)c1	-7.11%
Cc1ccccc1N1C(=O)NC(=O)/C(=C\c2ccc3c(c2)CCCN3Cc2ccccc2)C1=O	11%
C=CCN(CC=C)Cc1c(C)[nH]c2c(C)c(C)ccc2c1=O	-24.4%
COCc1nnc(NC(=O)c2cc3ccccc3o2)s1	19.3%
O=C(N/N=C/c1ccc([N+](=O)[O-])s1)C(O)c1ccccc1 (stereo not shown)	8.68%
CN(C(=O)CSc1nnc(-c2ccc(C(C)(C)C)cc2)n1C)C1CCS(=O)(=O)C1 (stereo not shown)	-3.7%
C#CCOCCOCCOCCNc1nc(OC)nc(N2CCN(C(=O)[C@H](CCC(=O)O)n3cc(C(N)CO)nn3)CC2)n1.Cl (stereo partly shown)	22.5%
CC(C(=O)NCC1CCCO1)n1cc([N+](=O)[O-])cn1 (stereo not shown)	11.7%
COc1ccc(NS(=O)(=O)c2cccc(-c3nnc4n3CCCCC4)c2)cc1	-11.4%
CSc1nsc(SCC(=O)Nc2ccccc2C(N)=O)n1	-1.64%
CN(Cc1ccccc1)C(=O)CN1C(=O)c2ccccc2S1(=O)=O	1.82%
Cc1c(C(=O)Nc2ccccc2F)cnn1-c1ccccc1	8.32%
COc1ccccc1C(=O)COC(=O)CCNS(=O)(=O)c1ccc(C)c(C)c1	-21.9%
CC(C)CC(=O)NC(=S)NNC(=O)c1cccc([N+](=O)[O-])c1	12.2%
Cn1c(=O)c([N+](=O)[O-])c(-n2cnc3ccccc32)c2ccccc21	-12.6%
CCOC(=O)c1nc2sc3c(c2c(=O)n1C(C)C(=O)OCC)CCCC3 (stereo not shown)	1.81%
O=C(C1=C[C@H](c2ccccc2)C[C@H](OCc2ccc(CO)cc2)O1)N1CCOCC1	-1.21%
COC(=O)C1=C(C)N=c2s/c(=C/c3ccoc3)c(=O)n2C1c1ccccc1 (stereo not shown)	-5.01%

Structure (SMILES)	hERG current change (%, negative = inhibition) at 10uM
O=C(COC(=O)c1ccccc1)Nc1ccccc1Br	-3.27%
Cc1cccc(C)c1NC(=O)c1c(-c2ccccc2)noc1C	-6.26%
CC1C2Cn3c(nc4ccccc43)C1N(C(C)C)O2 (stereo not shown)	7.71%
O=C(CNCC1CCCO1)N1CCN(S(=O)(=O)c2ccc3ccccc3c2)CC1.O=C(O)C(=O)O (stereo not shown)	-27.2%
Cc1ccc(C(=O)Nc2cccc(NC(=O)c3cccs3)c2)c(C)c1	-29.7%
COC(=O)c1cc(NC(=O)CC2NC3CCCCC3NC2=O)cc(C(=O)OC)c1 (stereo not shown)	-12.3%
O=C(O)CCCC(=O)N1CCN(C(c2ccccc2)c2ccccc2)CC1	7.31%
CC1=C(C(N)=O)C(c2cccs2)n2nc(-c3cccc(Cl)c3)nc2N1 (stereo not shown)	-24.9%
CCN(CC)S(=O)(=O)c1cccc(-c2n[nH]c(=S)n2/N=C/c2ccc(Br)cc2)c1	13%
O=C(O)c1ccccc1.OC(CNCC1CCCO1)Cn1c2ccc(Cl)cc2c2cc(Cl)ccc21 (stereo not shown)	-40.7%
O=c1c2ccccc2nnn1CSc1nnc(-c2ccc3c(c2)OCO3)o1	5.15%
O=C(COc1ccccc1)NC(=S)Nc1cccc2cc(O)ccc12	12.8%
COc1ccc(N(C(=O)Cn2nnc3ccccc32)C(C(=O)NCc2ccco2)c2ccc(C)o2)cc1 (stereo not shown)	-8.13%
CC(C)(C)OC(=O)NCCc1nnc(SCC(N)=O)o1	3.41%
CCCCNC(=O)Nc1cnn(CC)c1C(N)=O	-0.731%
COc1ccccc1CNC(=O)c1ccc2nc(N3CCOCC3)sc2c1	-12.1%
CC1CCN(c2ccc(C=O)o2)CC1	-10.3%
CC(/C=C1\SC(=S)N(CCCC(=O)Nc2ccc(C(=O)O)c(O)c2)C1=O)=C\c1ccccc1	7.47%
O=C(CCCCCn1c(=S)[nH]c2cc3c(cc2c1=O)OCO3)N1CCN(c2ccccc2)CC1	15.2%
CN(C)C(=O)CSc1nc2ccc(C(=O)c3ccccc3)cc2[nH]1	-16.4%
CCCc1nn(C)c(C(=O)Nc2ccc(CC)cc2)c1Cl	2.84%
